Measured values as given in the supplement of paper PMC10126150.
Values marked as one replicate rest on one cluster of the flow cell; about a third of the high ones do not repeat.

Tested on: ATP
Assay: switch fluorescence ratio, 500 uM ATP over buffer (Cy3 cluster intensity, sum of 5 cycles each) (fold (ratio)); higher = stronger signal-on switching upon ATP binding; sequences stand for … in TCGTCGGCAGCGTCAGATGTGTATAAGAGACAGTTTTTTTTTTTTTTTTTTTTTTTTT…TC
Details: aptamer strand: ATP DNA aptamer (quencher-CACCTGGGGGAGTATTGCGGAGGAAGG + anchor), 100 nM annealed; ATP concentration: 500 uM; one replicate
Procedure, shortened: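 Between each of five buffer/ATP cycles, the flow-cell was stripped with NaOH and re-annealed. Each cycle imaged Cy3-labelled switching-strand clusters, annealed to 100 nM quencher-labelled ATP aptamer on a modified Illumina MiSeq flow-cell, first in selection buffer and then after 15 min with 500 uM ATP at 22 °C. The fluorescence ratio is summed target-cycle over summed buffer-cycle Cy3 intensity per cluster, averaged per switch-domain sequence, with clusters outside 100-1000 RFU excluded.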
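Further: ATP exposure 15 min at 22 °C before imaging.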

Row | Sequence | switch fluorescence ratio
1 | ATTACAGGTC | 1.07
2 | GCATGAATTA | 1.01
3 | AGGGCCCTTC | 0.979
4 | TTTTCATAGC | 1.08
5 | ATGTGCTCTT | 0.937
6 | CTGGTAAAGG | 0.989
7 | GTTTTGGTCA | 0.999
8 | GCTGCGTCCA | 1.06
9 | GCAGAGTTCG | 1.05
10 | CTAACTTGCA | 1.01
11 | CCATGGACCC | 1.03
12 | GGCGTTTAGC | 1.07
13 | CATTGTAGTA | 0.958
14 | GCTTCAGGTG | 3.82
15 | GACTTTAGAT | 1.04
16 | GAATTTTCAT | 1
17 | CGCGATTACT | 4.06
18 | TTCTAGCGTC | 1.09
19 | TATTTTAAC | 1.05
20 | CCATGGTGG | 0.98
21 | GCGTAAGTTT | 1.04
22 | TGTGTTC | 1.03
23 | AATTCGAGCC | 1.03
24 | CGACGGCATT | 2.59
25 | GTTACATATG | 0.991
26 | GGGCAGGGA | 0.997

Row | Sequence | switch fluorescence ratio
27 | CTTTTATATA | 1
28 | AATATACGTT | 1.03
29 | CTCGCTGGGA | 0.948
30 | CTCATAGACG | 0.988
31 | GGCCATAAGT | 1.01
32 | TGAGCATA | 1.08
33 | AAGACCCCTG | 0.94
34 | GGGCTTGGC | 0.978
35 | TCGCAAGGGG | 1.09
36 | GTTAGTTGTG | 0.992
37 | CGTCTGGTTA | 1.02
38 | TGAACATGGA | 1.01
39 | ATCGAGTACC | 1.02
40 | TGAAGTGTTC | 1.04
41 | GACGACGG | 1.05
42 | TGGTATGCT | 0.962
43 | ATAGGAAGCA | 0.993
44 | TCCATGTCCG | 0.948
45 | GTGAAATACC | 1.12
46 | TGTGTTCGAT | 1.03
47 | CCTCTGGCGG | 2.45
48 | GGGTTTAGTC | 1.05
49 | CCTCTCACCA | 1.28
50 | TCAGGAGTT | 1.01
51 | TATTTTTAAT | 1
52 | AAATGGTCC | 1.01

Row | Sequence | switch fluorescence ratio
53 | GGGTATCGTG | 0.94
54 | CCGTACCACT | 1.26
55 | CTTTACTGCT | 0.939
56 | ACCATGATAT | 0.98
57 | GTGGCTCCGC | 1.5
58 | GACGGTAAGA | 1.06
59 | CCTTTTAGGA | 1.03
60 | AGTAGTCGTT | 0.973
61 | CGCATTCCGT | 1.03
62 | GATCTCATGG | 0.943
63 | CCAGATTGTG | 1.03
64 | GTACTGGTAC | 1.05
65 | TTCGGAGTA | 0.984
66 | GCCTAGTGGG | 1.01
67 | AGGCCGACCT | 0.946
68 | CGGCAATGT | 3.46
69 | CGTGGTGCGG | 0.971
70 | ACCGTAAAGC | 1.43
71 | GCCGAAAGGC | 1.04
72 | GTATTTCGAT | 0.985
73 | TGTACCGGGT | 0.999
74 | CGGCGACAAA | 1.02
75 | TTAGGACCGG | 0.994
76 | GCAAGCCGTT | 1.08
77 | AAGTAATGAG | 0.987
78 | CCTTGCACTG | 1.41

Row | Sequence | switch fluorescence ratio
79 | TAATGCCAAT | 1
80 | GATTGTTCTA | 0.971
81 | ACCCTTGGCC | 0.997
82 | ATCCACTACC | 1.23
83 | TTACTAAAGC | 1.05
84 | GATTTCTTTG | 0.972
85 | ACGGCAGCAG | 1.06
86 | TTCGGCACCC | 0.97
87 | AAGCGTTAAC | 1.01
88 | TGCATGATGG | 1
89 | CAGTTCCCGT | 1.01
90 | CGGGACTATC | 1.02
91 | CTGCGCTGGT | 1.11
92 | TACTGCTCAG | 1.01
93 | CTTTTGCTCT | 1.01
94 | ACGCTTGTGG | 1
95 | ACCGTTGAGC | 1.02
96 | AGGGTAGTAA | 0.976
97 | AGGTCCGGT | 0.989
98 | CTTGAGCACC | 1.09
99 | GTTTCTGTTT | 0.966
100 | TAAACCGTTC | 1.1
101 | TAGCGAGTC | 1.15
102 | CCAGGCATGC | 1.31
103 | GGTTTACTAC | 0.952
104 | GGAGCAAAGT | 2.05

Row | Sequence | switch fluorescence ratio
105 | CGGAACGAGT | 0.999
106 | ATCTGGCCGC | 1.09
107 | ACGGCCAGTA | 0.982
108 | TTGGGACTAG | 0.993
109 | CGCCAATGGG | 1.09
110 | GACACGAAG | 0.947
111 | TCCTGAAGGC | 1
112 | GCATTGACAA | 1.02
113 | GGGCTAAGGT | 1.03
114 | TAGGTTGTG | 1.04
115 | GACCAGTTTT | 0.983
116 | AGTCATCTAG | 1
117 | TGGTTGGTAC | 1.05
118 | CACATATTAG | 1.01
119 | GAGTGTAGTT | 1.05
120 | GATTAGAGTG | 0.986
121 | TCCGTGGACG | 0.939
122 | ACTTTACGTG | 1.28
123 | AGCAAGCACC | 1.79
124 | GCGAAACAAT | 1.09
125 | TATGTGGTT | 1.01
126 | CGACGGATCT | 1.02
127 | TTTTATATAG | 0.985
128 | CGCGGAGAGC | 1.01
129 | TGGTAATCCG | 1
130 | AGGGCCTGGA | 1

Row | Sequence | switch fluorescence ratio
131 | CACGGGGACA | 1.08
132 | TATACCGTAG | 1.16
133 | CAGTGGGAGG | 0.966
134 | AAATGGTAGT | 0.979
135 | ATCATAAAGA | 0.958
136 | GGCTGAATTT | 0.985
137 | GGATCCGGGC | 1.05
138 | AAGGATTGG | 1.01
139 | AAGCCCTCAA | 1.02
140 | GACTATGGAT | 0.947
141 | ACTGGCGCGA | 1.01
142 | CTGATATCAG | 1.02
143 | AGGAAGCTGG | 0.975
144 | GACAGAAAG | 1.03
145 | GATAAATTCG | 1.03
146 | TAAATCGGG | 1.01
147 | CATATTTTA | 1.02
148 | GTTTGTGTCG | 0.978
149 | GGCGAATAAT | 0.997
150 | GCTGTACGTA | 1.1
151 | TTCATCG | 1.02
152 | GCTGATAAGG | 1.02
153 | CATTGGTCT | 0.996
154 | TTTTAATGCT | 0.97
155 | TACCGAACT | 1.3
156 | TGGGCATTAC | 4.88

Row | Sequence | switch fluorescence ratio
157 | TCGTTTCTTA | 0.954
158 | CGCCTGGATA | 0.979
159 | GGGTCCTCGG | 0.977
160 | AGTTGCAACG | 0.973
161 | ACTAGCTGGT | 0.972
162 | TCGGTAAGCA | 0.971
163 | TTAGGTCGTT | 0.993
164 | CCGCGGTGTG | 1.08
165 | TCTGGCGGGC | 1.01
166 | AAGTAGAGCG | 1
167 | TCCCGATCTG | 1.01
168 | GTGAAAAGTG | 0.99
169 | CAGGCATAAA | 1.03
170 | CATTGACTAA | 0.996
171 | AAGCAGTGTT | 0.974
172 | GAATATCTAT | 0.994
173 | TAATAAGAAG | 0.995
174 | AGGCCTCTA | 1.01
175 | ACCTCATTAC | 2.24
176 | AGTGCGTTCT | 0.99
177 | ACTTTGAAGG | 0.976
178 | TGAGCAGTGG | 1.14
179 | GTCTTCGCTC | 1.02
180 | AGTAATTAAG | 1.02
181 | CGACGGACGC | 1.45
182 | GGTACAACGG | 1

Row | Sequence | switch fluorescence ratio
183 | TCACAATAGG | 1.04
184 | CACGGGTCCA | 1.01
185 | AATCGTCATT | 0.973
186 | CCTGTCGGTC | 1.06
187 | CTCTGTAGCT | 1.23
188 | TGCCGCCGGC | 1
189 | ACTAGGTCGA | 1.02
190 | CTCTCGGGGG | 0.967
191 | GCGCGCTTGG | 0.996
192 | GTATATGGAC | 1.04
193 | ACGCCCTCGT | 1.01
194 | AGAAGCGCGT | 1.03
195 | TTACGTGCCT | 1.01
196 | GGGCGCGCG | 1.02
197 | TACTAGAGG | 1.08
198 | GGAAAGATCA | 0.978
199 | GAGTAAGGG | 0.935
200 | CACTCAGTAT | 0.994
201 | ATATCCTTTC | 1.44
